According to the supplement of paper PMC8792480:
Where a name gives a salt, the structure may show the parent alone. This is one part of the list. Most values come without repeats; read them as rough.

Tested on: A549
Assay: cell-surface PD-L1 MFI ratio relative to radiation alone (isotype-subtracted); higher = higher PD-L1 surface expression
Conditions: inducer: radiation 8 Gy; 10 µM; 24 h
Procedure: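 A549 and H460 NSCLC cells were treated with each library drug at 10 uM, then with radiation (8 Gy) or cisplatin (4 uM), and incubated for 24 h. Cell-surface PD-L1 was measured by flow cytometry as an MFI ratio: (MFI drug+inducer - MFI isotype)/(MFI inducer alone - MFI isotype). Hits were defined as ratio < 0.75.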
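Also: surface PD-L1 on NSCLC cells stained with a PE-labelled anti-human PD-L1 antibody before flow cytometry, screening a library of roughly two hundred mostly kinase and epigenetic inhibitors.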

SMILES | cell-surface PD-L1 MFI ratio
Nc1cccc(-c2cc3c(Oc4cccc(O)c4)ncnc3[nH]2)c1 | inactive: 0.803
CC(C)(C)NC(=O)c1cncn1C1CCN(c2ccc(-c3nnc(C(F)(F)F)o3)cn2)CC1 | inactive: 0.787
CCc1cnn2c(NCc3ccc[n+]([O-])c3)cc(N3CCCC[C@H]3CCO)nc12 | inactive: 0.837
N#Cc1ccc2ncnc(NCCc3ccccc3)c2c1 [Senexin A] | inactive: 0.939
Nc1ccccc1NC(=O)c1ccc(CNC(=O)OCc2cccnc2)cc1 [Entinostat (MS-275)] | inactive: 1.61
CN(C)Cc1cccc(N=C(c2ccccc2)c2c(O)[nH]c3cc(C(=O)N(C)C)ccc23)c1 | inactive: 1.38
CCOc1cc(N2CCC(O)CC2)ccc1Nc1ncc2c(n1)N(C)c1ccccc1C(=O)N2C | inactive: 0.887
CC(C)Oc1ccc(C(=O)N[C@H](CNC(=O)CN(C)C)Cc2ccc(-c3cn4cccc([C@H](C)O)c4n3)cc2)cc1Cl | inactive: 1.2
O=C(Nc1ccc2[nH]nc(-c3ccncc3)c2c1)[C@@H]1CCN(CC(=O)N2CCN(c3ccc(-c4ncccn4)cc3)CC2)C1 | inactive: 1.08
CN(CC(=O)N(Cc1ccc(C2CCCCC2)cc1)c1ccc(C(=O)O)cc1)S(=O)(=O)c1c(F)c(F)c(F)c(F)c1F | inactive: 1.06
CC(C)(C(=O)NCC(F)(F)C(F)(F)F)C(=O)N[C@@H]1C(=O)Nc2ccccc2-c2ccccc21 | inactive: 0.931
CC(C)(C)c1cc(NC(=O)Nc2ccc(-c3cn4c(n3)sc3cc(OCCN5CCOCC5)ccc34)cc2)no1 [Quizartinib (AC220)] | inactive: 0.922
O=C(c1ccc(Nc2nccc(-c3cc4ccccc4s3)n2)cc1)N1CCC(N2CCCC2)CC1 [IKK-16 (IKK Inhibitor VII)] | inactive: 1.52
CCN(CC)CCNC(=O)c1c(C)[nH]c(/C=C2\C(=O)Nc3ccc(F)cc32)c1C [Sunitinib] | inactive: 48.9
COc1ccc2c(c1)[C@]1(C[C@H]1c1ccc3c(/C=C/c4ccc(CN5C[C@@H](C)O[C@@H](C)C5)cc4)n[nH]c3c1)C(=O)N2 | inactive: 1.07
CC(C)S(=O)(=O)c1ccc2nccc(Nc3ccc4scnc4c3)c2c1 | active: 0.676
CCCCCCCCCCCCCCCCn1cc[n+](Cc2ccccc2)c1C | inactive: 2.66
CCc1cncnc1N1CCN(Cc2nc3ccc(C(F)(F)F)cc3[nH]2)CC1 | inactive: 1.08
CCOc1ccn(-c2ccc(F)cc2)c(=O)c1C(=O)Nc1ccc(Oc2ccnc(N)c2Cl)c(F)c1 | inactive: 1.19
Nc1nc(F)nc2c1ncn2[C@@H]1O[C@H](CO)[C@@H](O)[C@@H]1O [Fludarabine] | inactive: 0.861

SMILES | cell-surface PD-L1 MFI ratio
O=C(/C=C/c1cncc(F)c1)c1c(-c2ccccc2)c2cc(Cl)ccc2[nH]c1=O | inactive: 2.55
CC1(C)CCC(CN2CCN(c3ccc(C(=O)NS(=O)(=O)c4ccc(NCC5CCOCC5)c([N+](=O)[O-])c4)c(Oc4cnc5[nH]ccc5c4)c3)CC2)=C(c2ccc(Cl)cc2)C1 [Venetoclax (ABT-199, GDC-0199)] | inactive: 1.41
Cc1ccc(CNc2ncnc3ccc(-c4ccc(CO)o4)cc23)o1 | inactive: 0.825
COc1ccc(S(=O)(=O)N(CCO)c2ccccc2CN(C)C/C=C/c2ccc(Cl)cc2)cc1 [KN-93 Phosphate] | inactive: 0.942
O=S(=O)(c1cccc2c(I)cccc12)N1CCCNCC1 | inactive: 0.776
O=C(N/N=C/c1ccc(O)c(O)c1)c1cc2ccccc2cc1O [Dynasore] | inactive: 0.888
O=C(O)C(Cc1ccccc1[N+](=O)[O-])=NNc1nc(-c2ccc(Cl)c(Cl)c2)cs1 (mixture of isomers) | inactive: 1.49
Nc1ncn([C@@H]2O[C@H](CO)[C@@H](O)[C@H]2O)c(=O)n1 [Azacitidine] | inactive: 0.87
CC(C)n1c(=O)n(C)c2cnc3cc(F)c(-c4ccc(OCCCN5CCCCC5)nc4)cc3c21 | inactive: 0.896
O=C(/C=C/N1C[C@H]2C[C@@H]1CN2c1ccccn1)c1ccccc1O | active: 0.73
CCc1ccc(/C=C2/SC(=S)NC2=O)cc1 | active: 0.66
CN1C(=O)c2sccc2N(C)c2nc(Nc3ccc(S(N)(=O)=O)cc3)ncc21 | inactive: 1.52
CC(C)[C@H]1C(=O)N[C@@H](CCCNC(=N)N)C(=O)NCC(=O)N[C@@H](CC(=O)O)C(=O)N[C@H](Cc2ccccc2)C(=O)N1C [Cilengitide trifluoroacetate] | active: 0.6
Nc1ccc2ncnc(NCCc3ccc(Oc4ccccc4)cc3)c2c1 | inactive: 0.901
Oc1c2ccccc2c2c3c(cccc13)N=N2 | inactive: 0.946
O=C(NC[C@H](O)CN1CCc2ccccc2C1)c1cc(NC2COC2)ncn1 | active: 0.748
Cc1ccc(S(=O)(=O)OCC(=O)Nc2ccc(C(=O)O)c(O)c2)cc1 | inactive: 1.17
CCNC(=O)c1noc(-c2cc(C(C)C)c(O)cc2O)c1-c1ccc(CN2CCOCC2)cc1 [Luminespib (AUY-922, NVP-AUY922)] | inactive: 0.973
O=C(Nc1cc(C(F)(F)F)ccc1N1CCCCC1)c1ccncc1 | inactive: 1.22
CC[C@H](NC(=O)[C@H](C)NC)C(=O)N1C[C@@H](O)C[C@H]1Cc1c(-c2[nH]c3cc(F)ccc3c2C[C@@H]2C[C@H](O)CN2C(=O)[C@H](CC)NC(=O)[C@H](C)NC)[nH]c2cc(F)ccc12 [Birinapant] | inactive: 0.791
